The values that follow are results of earlier work, collected in article PMC11006913.

Details in all cases: PBM; conditions not shown; double strand, one strand shown; scale: upbm affinity estimate (log intensity, higher = more binding, comparable within an allelic series)
Data set [1] addresses ARX (Homo sapiens) (UniProt Q96QS3).
Data set [2] concerns the target ARX L343Q (Homo sapiens) (UniProt Q96QS3).
The target in data set [3] is ARX P353L (Homo sapiens) (UniProt Q96QS3).
Data set [4] deals with ARX P353R (Homo sapiens) (UniProt Q96QS3).
In data set [5] the target is ARX R332H (Homo sapiens) (UniProt Q96QS3).
The target of data set [6] is ARX T333N (Homo sapiens) (UniProt Q96QS3).
Data set [7] has as its target T1, HESX1 E149K (Homo sapiens) (UniProt Q9UBX0).
T1 sequence: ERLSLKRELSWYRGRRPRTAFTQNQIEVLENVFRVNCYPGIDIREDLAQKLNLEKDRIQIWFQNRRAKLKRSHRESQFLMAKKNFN

Data set [8] addresses T2, HESX1 N125S (Homo sapiens) (UniProt Q9UBX0).
T2 sequence: T1 sequence with N31S, K55E

The target in data set [9] is T3, HESX1 R160C (Homo sapiens) (UniProt Q9UBX0).
T3 sequence: T1 sequence with K55E, R66C

The target in data set [10] is ISX (Homo sapiens) (UniProt Q2M1V0).
The target in data set [11] is ISX R83Q (Homo sapiens) (UniProt Q2M1V0).
In data set [12] the target is PROP1 R112Q (Homo sapiens) (UniProt O75360).
The target in data set [13] is PROP1 R99Q (Homo sapiens) (UniProt O75360).
In data set [14] the target is HOXD13 I297V (Homo sapiens) (UniProt P35453).
Data set [15] concerns the target HOXD13 I322L (Homo sapiens) (UniProt P35453).
Data set [16] concerns the target HOXD13 N298S (Homo sapiens) (UniProt P35453).
Data set [17] has as its target HOXD13 Q325K (Homo sapiens) (UniProt P35453).
In data set [18] the target is HOXD13 Q325R (Homo sapiens) (UniProt P35453).
The target in data set [19] is HOXD13 R306W (Homo sapiens) (UniProt P35453).
The target in data set [20] is HOXD13 S316C (Homo sapiens) (UniProt P35453).

Positions count from the first letter of the chain named. The list shows a part of the results.

In the case of TAATTGCA [8-mer TAATTGCA], the binding signal is 12.7 in data set [1]; 11 in data set [2]; 12.1 in [3]; 10.8 in data set [4]; 11.1 in data set [5]; 11.8 in data set [6]. Besides, the binding signal in data set [7] was 11.6; in data set [8] it was 11.7; in [9], 10.4; in data set [10] it was 14.8; in [11], 13.6; in data set [12], 12.7. Further, the binding signal in [13] is 12.2.
On to GCTAATTA [8-mer GCTAATTA], for which the binding signal in [1] is 13.5; in data set [2], 11; in data set [3], 13.3; in [4], 10.8; in data set [5], 11.2; in data set [6] it was 12.6. The binding signal in data set [7] is 12.2; in data set [8] it was 13.7; in data set [9], 10.3; in [10], 15.6; in [11], 15.3; in data set [12], 13. For the same sequence, in data set [13], the binding signal was 12.6.
On to GTCAATTA [8-mer GTCAATTA], for which the binding signal is 12.9 in [1]; 10.9 in [2]; 12.7 in data set [3]; 10.7 in data set [4]; 10.9 in data set [5]; 12.1 in [6]. Also, the binding signal in data set [7] is 11.8; in data set [8] it was 12.6; in [9] it was 10.2; in [10], 15.4; in [11], 14.4; in data set [12], 12.8. For the same sequence, the binding signal in data set [13] is 12.3.
For ATAATTAA [8-mer ATAATTAA], the binding signal is 13.2 in data set [1]; 11 in data set [2]; 12.6 in data set [3]; 10.9 in data set [4]; 11.1 in data set [5]; 12.3 in data set [6]. Moreover, the binding signal in data set [7] was 11.9; in data set [8], 13.5; in data set [9], 10.4; in [14], 12.2; in [15], 11.5; in data set [16] it was 12.4. The binding signal in [17] was 11.6; in [18] it was 11.9; in [19], 11.6; in data set [20] it was 12.1; in data set [10] it was 15.6; in data set [11] it was 14.7. Further, the binding signal in data set [12] was 12.8; in data set [13], 12.3.
As to ACCAATTA [8-mer ACCAATTA], the binding signal in data set [1] is 13.1; in [2], 11.1; in data set [3], 12.9; in [4], 10.9; in data set [5] it was 11.3; in data set [6] it was 12.4. For the same sequence, the binding signal in data set [7] was 12.2; in data set [8], 13.7; in data set [9], 10.5; in data set [10], 15.5; in data set [11], 15; in data set [12] it was 13. For the same sequence, the binding signal in data set [13] was 12.7.
ATAATTAT [8-mer ATAATTAT]: the binding signal in [1] is 12.9; in data set [2], 11.1; in data set [3] it was 12.4; in data set [4] it was 11; in data set [5], 11.2; in [6] it was 12.1. Moreover, the binding signal was 11.8 in data set [7]; 12.8 in data set [8]; 10.5 in [9]; 12 in [18]; 15.1 in data set [10]; 13.6 in data set [11]. Further, the binding signal in data set [12] was 12.8; in data set [13], 12.3.
For the sequence ATAATTGG [8-mer ATAATTGG], the binding signal was 13 in data set [1]; 11 in [2]; 12.7 in data set [3]; 10.8 in [4]; 11.2 in data set [5]; 12.2 in data set [6]. The binding signal in data set [7] is 12.1; in [8], 13.4; in [9], 10.4; in [10] it was 15.3; in data set [11], 14.6; in data set [12], 12.9. Moreover, the binding signal in data set [13] is 12.6.
Take CCGCCGCC [8-mer CCGCCGCC]: the binding signal in [1] is 10.1; in data set [2], 9.98; in data set [3] it was 10; in data set [4], 9.87; in [5], 10; in data set [6], 10.2.
Turning to AATTAACG [8-mer AATTAACG], the binding signal in [1] was 12.8; in data set [2], 10.9; in data set [3], 12.3; in data set [4], 10.8; in data set [5] it was 11; in [6], 11.9. Further, the binding signal is 11.4 in data set [7]; 11.1 in [8]; 10.3 in [9]; 14.7 in [10]; 13.6 in data set [11]; 12.7 in data set [12]. The binding signal in data set [13] was 12.2.
With AGCAATTA [8-mer AGCAATTA], the binding signal in data set [1] is 12.8; in data set [2], 10.9; in [3] it was 12.3; in data set [4], 10.7; in data set [5], 11; in data set [6] it was 11.9. Moreover, the binding signal in data set [7] is 11.7; in data set [8], 12.3; in data set [9], 10.4; in data set [10], 15.2; in [11] it was 14.1; in [12] it was 12.8. Further, in data set [13], the binding signal was 12.3.
For the sequence CCAATTAG [8-mer CCAATTAG], the binding signal in [1] was 13.2; in [2], 11; in [3], 13; in [4], 10.8; in [5], 11; in [6], 12.4. In addition, the binding signal is 12 in [7]; 13.3 in data set [8]; 10.4 in data set [9]; 15.5 in data set [10]; 15.1 in data set [11]; 12.9 in data set [12]. The binding signal in [13] is 12.6.
